Measurements from PubChem BioAssay AID686978 (National Center for Advancing Translational Sciences (NCATS), 2013).
About 64,000 (15%) of roughly 420,000 compounds were called active. Inconclusive means that the source gave no clear call. Such entries were picked first, then a sample of the others. Calls follow the shape of the dose curve; as a rule, active = well fitted inhibition curve with a large enough effect; inconclusive = small, poorly fitted or top-dose-only effect; inactive = flat fitted curve, though single readings scatter. No potency is given beside an inconclusive call; the fits are too rough.

Assay: qHTS for Inhibitors of human tyrosyl-DNA phosphodiesterase 1 (TDP1): qHTS in cells in absence of CPT; also: nearly all actives have a fitted effect of over 55% in size
Conditions: DT40 Tdp1-/- hTDP1 cells, no CPT, ATP luminescence, 48 h; activity change, negative = growth inhibition: at 46.2 µM (top of the series) unless noted
Procedure, shortened: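 Camptothecin absent (DMSO only). Human TDP1-complemented DT40 knockout cells, 400 cells/well, 37 °C for minimum 48 hr; ATP measured via CellTiter-Glo, 30 min dark incubation, luminescence.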
% is scaled to controls: 0 for no effect and ±100 for the full control effect; potency is read from the fitted curve at half-maximal effect; tags tell the direction and shape of the fitted curve.

| Compound | Potency | activity change, negative = growth inhibition |
| --- | --- | --- |
| C/C(=N\NC(=O)c1nnn(-c2nonc2N)c1C(C)C)c1cc(C)sc1C | inconclusive [inhibitor, single point] | – |
| Cc1ccc(CNC(=O)Nc2cc(C(=O)NCc3ccc(C(C)C)cc3)ccc2N2CCCC2)cc1 | inconclusive [inhibitor, single point] | – |
| CCOc1ccc(C(=O)N(CN2CCCC2=O)c2cccc(Cl)c2)cc1 | inconclusive [inhibitor, partial curve] | – |
| C/C(=N\NC(=O)c1cc(-c2ccccn2)nc2ccccc12)c1cccc([N+](=O)[O-])c1 | inconclusive [inhibitor, single point] | – |
| CCOC(=O)c1ccc(NC(=O)C(CC)Sc2nc3ccncc3[nH]2)cc1 (configuration not stated) | – | inactive: -35.3% |
| Cc1cc(C)cc(-n2c(C)cc(C(=O)C(=O)Nc3ccccc3F)c2C)c1 | – | inactive: 0.958% |
| CCc1cc2c(CN3CCN(Cc4ccccc4)CC3)cc(=O)oc2cc1O | active: 18.4 µM | – |
| Cc1ccc(CN(c2ccc(C(=O)N3CCc4ccccc4C3)cc2)S(C)(=O)=O)cc1 | active: 14.6 µM | – |
| C[C@H](CO)N1C[C@H](C)[C@H](CN(C)C(=O)Nc2ccc(F)cc2)OCc2ccccc2-c2c(n(C)c3ccccc23)C1=O | active: 13 µM | – |
| Cc1ccc(NC(=O)CN(C)C(=O)c2cccc(S(=O)(=O)N3CCc4ccccc43)c2)cc1 | active: 16.4 µM | – |
| CC(C)CN(C(=O)COC(=O)CCSc1ccc(Cl)cc1)c1c(N)n(Cc2ccccc2)c(=O)[nH]c1=O | active: 18.4 µM | – |
| COCCn1c(CN2CCN(C(=O)c3ccco3)CC2)nc2c1c(=O)n(C)c(=O)n2C | – | inactive: 16.4% |
| Cc1nc(SCC(=O)NCc2ccco2)c2oc3ccccc3c2n1 | – | inactive: -15.1% |
| Cc1c[nH]c(=O)n(CCCN2CCN(c3ccccc3OCC(F)(F)F)CC2)c1=O | inconclusive [inhibitor, full curve, poor fit] | – |
| C=C1NN(C)C(=O)N1c1ccc(OC)cc1 | – | inactive: -0.406% |
| Cc1cc(SCCOc2ccc(Br)cc2)nc(N)n1 | inconclusive [inhibitor, single point] | – |
| Cc1ccc(N(C(=O)CCC(=O)Nc2ccccn2)C(C(=O)NC(C)C)c2ccc(F)cc2)cc1 (configuration not stated) | inconclusive [inhibitor, single point] | – |
| C[C@@H]1CN([C@@H](C)CO)C(=O)c2cccc(NC(=O)Nc3ccc4c(c3)OCO4)c2O[C@H]1CN(C)S(=O)(=O)c1cn(C)cn1 | inconclusive [inhibitor, partial curve] | – |
| Cc1c(CC(=O)NCCCCCC(=O)O)c(=O)oc2cc3occ(-c4ccccc4)c3cc12 | – | inactive: -18.2% |
| CCSc1nnc(NC(=O)CSc2nc3c(c(=O)n2C)SC(C)C3)s1 (configuration not stated) | active: 11.2 µM | – |
| CC(=O)c1ccc(OCc2cc([N+](=O)[O-])cc3c2OCOC3)cc1 | – | inactive: -0.813% |
| C=CCn1c(SCc2cccc(F)c2)nc2cc(C(=O)N3CCC(C(N)=O)CC3)ccc2c1=O | inconclusive [inhibitor, single point] | – |
| Cc1cc(=O)[nH]c(Nc2ccccc2C)n1 | – | inactive: -9.71% |

| Compound | Potency | activity change, negative = growth inhibition |
| --- | --- | --- |
| CC(C)OC(=O)NC(C)(C)COC(=O)Nc1cccc(Cl)c1 | inconclusive [inhibitor, single point] | – |
| CSc1sc(-c2nnc(SCC(=O)Nc3ccccc3)n2C)c2c1C=CCC2 | inconclusive [inhibitor, single point] | – |
| COc1ccc(C(=O)N/N=C/c2ccccn2)cc1OC | inconclusive [inhibitor, single point] | – |
| CC[n+]1ccc(C)c2cc(P(=O)(c3ccccc3)c3ccccc3)ccc21 | inconclusive [inhibitor, partial curve, poor fit] | – |
| COc1ccccc1-n1cc([C@@H]2C[C@H]3CN(c4ccccc4)C(=O)[C@]34CCCN24)cn1 | – | inactive: 2.67% |
| CCOC(=O)C1(Cc2ccccc2)CCN(Cc2ccc(COC)o2)CC1 | inconclusive [inhibitor, partial curve, poor fit] | – |
| Cc1ccccc1OCCNc1cc(N2CCN(CCO)CC2)ccc1[N+](=O)[O-] | inconclusive [inhibitor, single point] | – |
| S=c1nc(C2CCCCC2)n(-c2ccccc2)[nH]1 | active: 23.1 µM | – |
| COc1ccc(/C=C2\SC(=S)N(c3cccnc3)C2=O)cc1 | inconclusive [inhibitor, single point] | – |
| CCOc1ccc(-c2nn(-c3ccccc3)cc2C2NC(=O)NC(C)=C2C(=O)OC(C)C)cc1 (configuration not stated) | inconclusive [inhibitor, single point] | – |
| COc1cc(/C=N/NC(=O)c2ccncc2)ccc1OC(=O)c1cccc(Br)c1 | inconclusive [inhibitor, single point] | – |
| CC(C)[C@H](N)c1nnc(SCC(=O)c2ccc(Cl)cc2)o1 | active: 13 µM | – |
| Cc1ccc(Cl)cc1N1CCN(CC(=O)Nc2ccc(CN3CCCCC3)cc2)CC1 | inconclusive [inhibitor, single point] | – |
| COC(=O)c1cc2c(cc1NC(=O)CSCCc1ccccn1)OCO2 | inconclusive [inhibitor, single point] | – |
| O=C1c2c([N+](=O)[O-])cc([N+](=O)[O-])cc2S(=O)N1Cc1ccccc1 (configuration not stated) | – | inactive: 17.1% |
| O=[N+]([O-])c1cc(Cc2ccccc2)cc(C=Nc2ccc(N3CCOCC3)cc2)c1O | – | inactive: -0.416% |
| COc1ccc(N2CCN(c3ccc(NC(=O)/C=C\C(=O)O)cc3)CC2)cc1 | – | inactive: -23.1% |
| O=C(NCCNC(=O)c1cc(OCC(F)(F)F)ccc1OCC(F)(F)F)Nc1ccccc1 | inconclusive [inhibitor, single point] | – |
| O=C(CSc1oc(-c2ccccc2)nc1S(=O)(=O)c1ccc(Cl)cc1)c1ccccc1 | active: 18.4 µM | – |
| COc1ccccc1CNC(=O)c1[nH]c(C)c(C(C)=O)c1C | inconclusive [inhibitor, full curve, poor fit] | – |
| CC(NCC(O)COCc1ccc(Cl)cc1)c1ccccc1 (configuration not stated) | inconclusive [inhibitor, single point] | – |
| Cc1ccc2c(=O)cc(C(=O)Nc3ccc(S(=O)(=O)Nc4onc(C)c4C)cc3)oc2c1C | – | inactive: -9.26% |
| CC(=O)OCC(=O)[C@@]1(O)[C@H](C)C[C@H]2[C@@H]3C[C@H](F)C4=CC(=O)C=C[C@]4(C)[C@H]3[C@@H](O)C[C@@]21C | inconclusive [inhibitor, single point] | – |

| Compound | Potency | activity change, negative = growth inhibition |
| --- | --- | --- |
| Cn1c(SCC(=O)NC2CCCCC2)nnc1-c1ccccc1O | – | inactive: 10.2% |
| O=C(CC1C(=O)N(c2ccc(F)cc2)C(=O)N1Cc1ccc2c(c1)OCO2)Nc1ccc(Cl)cc1 (configuration not stated) | active: 20.6 µM | – |
| NS(=O)(=O)c1ccc(NC(=O)COC(=O)C23CC4CC(CC(C4)C2)C3)cc1 | inconclusive [inhibitor, partial curve, poor fit] | – |
| Cc1ccc(-n2cc(C(=O)Oc3ccc(F)cc3)c3ccccc3c2=O)cc1 | inconclusive [inhibitor, single point] | – |
| COc1cccc(CNC(=O)c2ccc(F)c(S(=O)(=O)N3CCCCC3)c2)c1 | inconclusive [inhibitor, single point] | – |
| CCC(c1nnnn1Cc1ccccc1)N1CCN(c2ccc(OC)cc2)CC1 (configuration not stated) | inconclusive [inhibitor, single point] | – |
| CCN(CC)S(=O)(=O)c1cccc(C(=O)N/N=C/c2cccc(O)c2O)c1 | active: 4.61 µM | – |
| COC(=O)[C@H]1C[C@@H]1[C@H](NC(=O)[C@H]1C[C@@H]1[C@H](NC(=O)OCc1ccccc1)c1ccccc1)c1ccccc1 | – | inconclusive: -32.7% [inhibitor] |
| O=C(Nc1ccc2c(c1)C(=O)c1ccccc1-2)c1ccccc1 | inconclusive [inhibitor, partial curve] | – |
| CCOc1nc(OCC)c2cnn(C)c2n1 | – | inactive: -17.2% |
| Cc1cccc(CNC(=O)c2cnn(-c3ncc4c(n3)-c3ccccc3CC4)c2C2CC2)n1 | – | inactive: 5.14% |
| COc1ccc(CN(C)C(=O)c2cnc(C)cn2)c(OC)c1OC | inconclusive [inhibitor, single point] | – |
| O=C(CCl)Nc1ccccc1C(=O)NCc1ccccc1 | inconclusive [inhibitor, single point] | – |
| Cc1ccc(Sc2ncccc2C(=O)NCC(c2ccc(F)cc2)N2CCOCC2)c(C)c1 (configuration not stated) | inconclusive [inhibitor, single point] | – |
| COc1ccc(N2CCN(C(=O)CSc3nnc(COc4cccc5cccnc45)o3)CC2)cc1 | inconclusive [inhibitor, single point] | – |
| CC(C)c1ccc(O)c(C(=O)c2cnn(-c3ccccc3)c2)c1 | – | inactive: -29.8% |
| CC(=O)C(Sc1ncnc2sc3c(c12)CCCC3)C(C)=O | inconclusive [inhibitor, partial curve] | – |
| CC(C)C[C@@H](CN1CCCC1CN1C(=S)NC[C@@H]1Cc1ccc(O)cc1)N1C[C@H](Cc2ccccc2)N(CC2CCCCCC2)C1=S (some centres not stated) | active: 23.1 µM | – |
| COc1ccc(C(=O)Nc2cc(Cl)ccc2OC(=O)c2ccc(OC)cc2)cc1 | inconclusive [inhibitor, single point] | – |
| C/C(=C\c1ccco1)C1C(C#N)=C(N)Oc2n[nH]c(-c3ccc(C)cc3)c21 (configuration not stated) | inconclusive [inhibitor, partial curve] | – |
| O=C(NCCCn1ccnc1)c1cccc(S(=O)(=O)N2CCCCCC2)c1 | inconclusive [inhibitor, single point] | – |
